From PubChem BioAssay AID328 (DTP/NCI, 2004)
The source gives many values for each of these; only a part stands here. Toxic doses and inconclusive results are not listed. How the source made its calls: active means survival T/C of 150% or more; inactive means T/C below 125% in these data.

Test system: BDF1 mice, P388 leukemia ip, median survival T/C
Test: NCI In Vivo Anticancer Drug Screen. Data for tumor model P388 Leukemia (intraperitoneal) in B6D2F1 (BDF1) mice
Details: endpoint: median survival time, higher = longer survival
Protocol: The antitumor activity of compounds was measured in mice bearing transplantable tumors. Survival or tumor size were measured and the results are expressed as the measurement made in the treated group (T) divided by the measurement made in the vehicle treated control group (C). The tumor model used in this assay is P388 Leukemia (intraperitoneal) in B6D2F1 (BDF1) mice

Measured: T/C

COc1cccc2c1C(=O)c1c(O)c3c(c(O)c1C2=O)C[C@@](O)(C(C)=O)C[C@@H]3OC1CC(N)C(O)C(C)O1 (some centres not stated)
active: dose: 0.36 mg/kg/injection, schedule: Q## X010 (ip), vehicle: saline 220 % of control | dose: 0.37 mg/kg/injection, schedule: Q01DX010 (ip), vehicle: saline 200 % of control | dose: 0.75 mg/kg/injection, schedule: Q01DX010 (ip), vehicle: saline 235 % of control | dose: 0.9 mg/kg/injection, schedule: Q01DX009 (ip), vehicle: clinical formulation 221 % of control | dose: 1.0 mg/kg/injection, schedule: Q04DX003 (ip), vehicle: saline 220 % of control | dose: 1.5 mg/kg/injection, schedule: Q01DX010 (ip), vehicle: saline 300 % of control | dose: 3.0 mg/kg/injection, schedule: Q01DX010 (ip), vehicle: saline 170 % of control
